This is an account of results in PubChem BioAssay AID1347073 (National Center for Advancing Translational Sciences (NCATS), 2019).

The whole screen tested about 45,000 compounds, of which about 200 (0.44%) were called active. About 7% were inconclusive and are not listed. Calls follow the shape of the dose curve; as a rule, active = well fitted activation curve with a large enough effect; inconclusive = small, poorly fitted or top-dose-only effect; inactive = no such curve, though single readings can be large or run the other way. The list shows a part of the results.

A short description of this assay: qHTS of TDP-43 Inhibitors: NCGC Sytravon Library Screen. Also: 0% is about no effect; nearly all actives have a fitted effect of over 55% in size. Particulars: yeast TDP-43 toxicity rescue, BacTiter-Glo growth, 24 h; series mostly up to 46.1 µM; growth rescue (activation): at the top concentration. The method, boiled down: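 TDP-43-expressing yeast, pregrown in raffinose, seeded at OD600 0.02 in galactose medium with compound for 24 hr at 30 deg C. Growth read by BacTiter-Glo luminescence, so rescue of toxicity appears as activation.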
For `O=C(NCc1cccs1)c1ccc(Cl)c(S(=O)(=O)N2CCCC2)c1`, the “growth rescue (activation)” value is inactive: 14.6%.
The same measure, in the same setting: the same measure for `CNS(=O)(=O)c1ccc(NC(=O)Nc2cccc(F)c2)cc1`: inactive: 0.931%; for `CC1(C(=O)Nc2cccc3ncccc23)CCN1C(=O)C1(c2ccccc2)CC1` (configuration not stated): inactive: 2.56%; for `O=S(=O)(c1ccc(Br)c2nsnc12)N1CCOCC1`: inactive: 2.95%.
On the same count and under the same terms, the same measure for `O=C(COC(=O)COc1ccc(Cl)cc1Cl)NC1CCCC1`: inactive: 1.39%; for `COC(=O)[C@@H]1CCCN1C(=O)CCc1nnc(CCC2CCCCC2)o1`: inactive: -5.61%; for `Cc1ccc(NC(=O)C(=O)NCCOc2ccc(Cl)cc2)c(C)c1`: inactive: 15.4%.
Turning to `Cc1ccc(-c2cnc(C(O)c3cccc(C)c3C)[nH]2)cc1` (configuration not stated), the “growth rescue (activation)” value is inactive: 1.51%.
On the same count and under the same terms, the same measure for `CNC(=O)CNC(=O)Nc1ccc(C)cc1`: inactive: -1.97%; for `Cc1ccc2nc(N3C(=O)C(O)=C(C(=O)c4cc5ccccc5o4)C3c3cccs3)sc2c1` (configuration not stated): inactive: 3.51%.
Same read-out and setting: the same measure for `Cc1ccc(C(O)c2ncc(-c3ccc(C(F)(F)F)cc3)[nH]2)cc1F` (configuration not stated): inactive: 16.5%; for `CCN(CC)S(=O)(=O)c1ccc2c(c1)N(CC(=O)Nc1ccc(F)cc1)C(=O)CO2`: inactive: 3.02%.
Still for that read-out and setting: the same measure for `CCN(CC)S(=O)(=O)c1cc(NC(=O)CCNC(=O)c2ccccc2Cl)ccc1C`: inactive: 7.36%; for `COc1cc(NC(=O)CN2CCN(Cc3ccc4c(c3)OCO4)CC2)cc(OC)c1`: inactive: 15.8%.
As for `CC(C)(C)NC(=O)c1ccc2c(c1)N(CC(=O)NC1CCCC1)C(=O)C(C)(C)O2`, the “growth rescue (activation)” value is inactive: -1.35%.
Same read-out and setting: the same measure for `OC(c1cccc(CN2CCCCC2)c1)c1ncc(-c2ccccc2Cl)[nH]1` (configuration not stated): inactive: 17.3%; for `COc1ccc(OC)c(S(=O)(=O)NC2CCSc3ccccc32)c1` (configuration not stated): inactive: 21.5%.
For `O=C(CSCc1ccccc1)NCCCN1CCOCC1`, the “growth rescue (activation)” value was inactive: -4.79%.
Still for that read-out and setting: the same measure for `O=C(Nc1ccc(C(F)(F)F)cc1)c1ccc(NC(=O)C2CCCO2)cc1` (configuration not stated): inactive: 11%.
Consider `CCOC(=O)c1c(-c2ccc(F)cc2)csc1NC(=O)C1CC=CCC1C(=O)O` (configuration not stated), for which the “growth rescue (activation)” value was inactive: 16%.
Consider `CCn1cc(C=C2C(=O)c3ccccc3C2=O)c2ccccc21`, for which the “growth rescue (activation)” value is inactive: 13.4%.
Still for that read-out and setting: the same measure for `Cc1cccc(-c2noc(CCC(=O)NC3CCCC3)n2)c1`: inactive: 29.6%.
For the molecule `O=C(CSc1nc2ccccc2c(=O)[nH]1)Nc1ccccc1O`, the “growth rescue (activation)” value was inactive: -15.8%.
As to `CCN(CC)c1ccc(NC(=O)c2cnn(CC)c2)cc1`, the “growth rescue (activation)” value is inactive: 5%.
Same read-out and setting: the same measure for `COc1ccc(NC(=O)/C(=C\c2ccco2)NC(=O)c2ccco2)cc1`: inactive: 11.3%; for `Cn1c(CO)cnc1SCc1ccc(F)cc1`: inactive: -13.3%; for `O=C(NN=C(Cc1ccccc1)Cc1ccccc1)c1ccccc1O`: inactive: -2.24%.
Same read-out and setting: the same measure for `CC1(C)NC(=O)N(CC(=O)OCC(=O)Nc2cc(S(=O)(=O)N3CCCCCC3)ccc2Cl)C1=O`: inactive: 4.15%; for `O=C(OCC1OC2OC3(CCCCC3)OC2C2OC3(CCCCC3)OC12)c1ccccc1` (configuration not stated): inactive: 20.5%; for `CC(N=C1NS(=O)(=O)c2ccccc21)C(=O)NCc1ccc(F)cc1` (configuration not stated): inactive: 2.45%.
The same measure, in the same setting: the same measure for `COc1ccc(OCCCn2c(=O)oc3ccc(C)cc32)cc1`: inactive: 26.4%.
Turning to `Cc1ccc(-c2nnn(CC(=O)N(CC3CCCO3)C(C(=O)NC3CCCC3)c3ccc(F)cc3)n2)o1` (configuration not stated), the “growth rescue (activation)” value is inactive: 33%.
Still for that read-out and setting: the same measure for `C/C(N)=C(/C#N)C(=O)COC(=O)c1cc(C)n(-c2ccc(F)cc2)c1C`: inactive: 11.2%.
As for `CCCOc1ccc(C2/C(=C(\O)c3c(C)[nH]c(C(=O)OC)c3C)C(=O)C(=O)N2CCN(C)C)cc1` (configuration not stated), the “growth rescue (activation)” value is inactive: 10.8%.
Same read-out and setting: the same measure for `CCNc1nc(CN2CCCCC2)nc2scc(-c3ccccc3)c12`: inactive: 14%.
On the same count and under the same terms, the same measure for `CCCCNC(=S)NNC(=O)C1=NN(c2cc(C)ccc2C)C(=O)CC1`: inactive: -2.83%; for `CC(C)NC(=O)CC1C(=O)N(Cc2ccccc2)C(C)c2nc3ccccc3n21` (configuration not stated): inactive: 7.24%.
Still for that read-out and setting: the same measure for `CCNC(=O)C1(C)CCN(C(=O)c2cccc(C#N)c2)C1` (configuration not stated): inactive: 12.4%.
On to `CCCCN(CC)CCNC(=O)c1cc2c(-c3ccc(Cl)cc3)nn(C)c2s1`, for which the Potency entry is “inactive”.
On to `c1ccc2[nH]c(SCc3cn4ccccc4n3)nc2c1`, for which the “growth rescue (activation)” value was inactive: -12.4%.
The same measure, in the same setting: the same measure for `Cc1ccc(C(=O)Nc2cccnc2)cc1S(=O)(=O)N1CCCC1`: inactive: 3.13%.
The same measure, in the same setting: the same measure for `O=C(NNS(=O)(=O)c1ccc2ccccc2c1)NC1CCCCC1`: inactive: 21.2%; for `O=c1c2ccccc2nc(/C=C/c2cccc([N+](=O)[O-])c2)n1CCO`: inactive: -14.1%.
Same read-out and setting: the same measure for `O=C(O)c1c(F)c(F)cc2ccccc12`: inactive: 16.8%.
Turning to `CC(=O)Nc1ccc(NC(=O)[C@H](C)NC(=O)c2ccco2)cc1`, the “growth rescue (activation)” value was inactive: 9.71%.
Same read-out and setting: the same measure for `O=C(NC(=S)NNS(=O)(=O)c1ccccc1)c1ccc([N+](=O)[O-])cc1`: inactive: -9.47%; for `Cc1ccc(NC(=O)Cc2nnc(SCC(=O)NC3CCCC3)n2C)c(C)c1`: inactive: -21.3%.
Still for that read-out and setting: the same measure for `COc1ccccc1/C=C/c1nc(C#N)c(N2CCCCCC2)o1`: inactive: 12.7%; for `O=C(COC(=O)/C=C/c1cccc(C(F)(F)F)c1)NC(=O)NCc1ccco1`: inactive: 13.6%; for `NC(=O)c1cccc(-c2ccnc3c2CC(C(=O)NCc2ccccc2)O3)c1` (configuration not stated): inactive: -4.24%.
Still for that read-out and setting: the same measure for `CCOc1ccc(S(=O)(=O)N(C)c2ccc(OCC(=O)NC3=NCCS3)cc2)cc1`: inactive: 14.6%; for `CC(=O)Nc1cccc(-c2ccnc3c2CC(C)(C(=O)Nc2cccc(C(C)=O)c2)O3)c1` (configuration not stated): inactive: 14.7%.
